Test results as given in the RNAGym collection of RNA variant scans (doi:10.1073/pnas.2313332121).
This sample is rich in variants without activity.

B1: TPR 5TU (parent)
chain: GGAUCUUCUCGAUCUAACAAAAAAGACAAAUCUGCCACAAAGCUUGAGAGCAUCUUCGGAUGCAGAGGCGGCAGCCUUCGGUGGCGCGAUAGCGCCAACGUUCUCAACUAUGACACGCAAAACGCGUGCUCCGUUGAAUGGAGUUUAUCAUG

Variants of: B1
Experiment: polymerase ribozyme fitness, log enrichment relative to wild type (log ratio); higher = more active; in vitro selection for triplet polymerase activity
Method in brief: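 A heterodimeric triplet polymerase ribozyme had each of its subunits mutagenized by PCR into a library, which was transcribed. One round of in vitro selection, done in triplicate, annealed each library with a biotinylated primer, its partner subunit and triplets, then incubated it frozen at −7 °C before gel excision of extended constructs, streptavidin-bead capture and RT-PCR. Fitness is the logarithm of genotype enrichment relative to wild-type enrichment, based on Illumina sequencing of inputs and outputs and inverse-variance-weighted replicate averages. A base-2 logarithm is used, and genotypes were kept only with ≥10 input reads and ≥1 read per output.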

A73C C93G U104A C125U and A73C C95A C99G A107U A115G cannot be ordered by “polymerase ribozyme fitness (log ratio)” value: at most -4.2 for the first, at most -4.2 for the second.

A73C C99U C149U and A73C G80A G86A C87A cannot be ordered by “polymerase ribozyme fitness (log ratio)” value: at most -4.2 for the first, at most -4.2 for the second.

A73C G80C A137G G140C U145A and A73C G92A U101G cannot be ordered by “polymerase ribozyme fitness (log ratio)” value: at most -4.2 for the first, at most -4.2 for the second.

Compared with A73C G92C, A73C G92U is lower in “polymerase ribozyme fitness (log ratio)” value: -3.64 for the first, at most -4.2 for the second.

Going from A73C G94A to A73C G141A, the “polymerase ribozyme fitness (log ratio)” value rises from at most -4.2 to -3.8.

A73C U77C C93U and A73G A91U A97G U101G C118A G141A cannot be ordered by “polymerase ribozyme fitness (log ratio)” value: at most -4.2 for the first, at most -4.2 for the second.

First: A73G A97C C99G
Second: A73G A98G U146G
The “polymerase ribozyme fitness (log ratio)” value of the first is lower: at most -4.2 for the first, -1.02 for the second.

First: A73G A122U G126U
Second: A73G A142G
The “polymerase ribozyme fitness (log ratio)” value of the first is higher: -0.405 for the first, -1.38 for the second.

First: A73G C76U A142U
Second: A73G C79U A91U G94A G128U
The “polymerase ribozyme fitness (log ratio)” value of the first is higher: -2.11 for the first, at most -4.2 for the second.

A73G C85A A98U A107G and A73G C85A C93A G141C cannot be ordered by “polymerase ribozyme fitness (log ratio)” value: at most -4.2 for the first, at most -4.2 for the second.

First: A73G C85A C99U U145G C149U
Second: A73G C85G
The “polymerase ribozyme fitness (log ratio)” value of the first is lower: at most -4.2 for the first, -1.1 for the second.

A73G C85U A138G and A73G C87A C95U U104C C105A U109G G141U cannot be ordered by “polymerase ribozyme fitness (log ratio)” value: at most -4.2 for the first, at most -4.2 for the second.

A73G C87G A138U and A73G C87U A107U C114U G141A U145A cannot be ordered by “polymerase ribozyme fitness (log ratio)” value: at most -4.2 for the first, at most -4.2 for the second.

A73G C87U A120U C123U A147G and A73G C93A A97G G100U A106U A107G cannot be ordered by “polymerase ribozyme fitness (log ratio)” value: at most -4.2 for the first, at most -4.2 for the second.

A73G C99A G141C and A73G G74A U127G A138U U146G cannot be ordered by “polymerase ribozyme fitness (log ratio)” value: at most -4.2 for the first, at most -4.2 for the second.

A73G G80C C116U G136A G141U U151A and A73G G80U G94U U102C U127C cannot be ordered by “polymerase ribozyme fitness (log ratio)” value: at most -4.2 for the first, at most -4.2 for the second.

A73G G83U A97C C105A A106G U127A G128U and A73G G83U C85G A106G C118G cannot be ordered by “polymerase ribozyme fitness (log ratio)” value: at most -4.2 for the first, at most -4.2 for the second.

A73G G84A A107G and A73G G84C C96U C114U cannot be ordered by “polymerase ribozyme fitness (log ratio)” value: at most -4.2 for the first, at most -4.2 for the second.

A73G G86A C87G G88U C116U C118A G141C and A73G G86U C99G U101A U135G cannot be ordered by “polymerase ribozyme fitness (log ratio)” value: at most -4.2 for the first, at most -4.2 for the second.

A73G G88A C95U U144C and A73G G88C cannot be ordered by “polymerase ribozyme fitness (log ratio)” value: at most -4.2 for the first, at most -4.2 for the second.

A73G G92A C99G G141U and A73G G92A C99U A107U C114G cannot be ordered by “polymerase ribozyme fitness (log ratio)” value: at most -4.2 for the first, at most -4.2 for the second.

A73G G92A C105A G133A and A73G G92A C132U G141C cannot be ordered by “polymerase ribozyme fitness (log ratio)” value: at most -4.2 for the first, at most -4.2 for the second.

Compared with A73G G92C, A73G G94A C105G A121C G143U A147G is lower in “polymerase ribozyme fitness (log ratio)” value: -0.498 for the first, at most -4.2 for the second.

Compared with A73G G126A, A73G G143A is lower in “polymerase ribozyme fitness (log ratio)” value: -0.377 for the first, -0.82 for the second.

A73G U77A G94A A107G A150C and A73G U77A U82A U102A cannot be ordered by “polymerase ribozyme fitness (log ratio)” value: at most -4.2 for the first, at most -4.2 for the second.

A73G U78A C116A A138G and A73G U82A G84A G92U C105G A150C cannot be ordered by “polymerase ribozyme fitness (log ratio)” value: at most -4.2 for the first, at most -4.2 for the second.

A73G U90G and A73G U90G A138G cannot be ordered by “polymerase ribozyme fitness (log ratio)” value: at most -4.2 for the first, at most -4.2 for the second.

First: A73U
Second: A73U A91U A106C G136C
The “polymerase ribozyme fitness (log ratio)” value of the first is higher: -0.424 for the first, at most -4.2 for the second.

A73U A98G G117U A119U G133U G136A C149G and A73U A107U U127C cannot be ordered by “polymerase ribozyme fitness (log ratio)” value: at most -4.2 for the first, at most -4.2 for the second.

First: A73U A122G
Second: A73U C75A U77C G83C C103A A150C
The “polymerase ribozyme fitness (log ratio)” value of the first is higher: -0.995 for the first, at most -4.2 for the second.

A73U C75G C85G A150U and A73U C76A G84A G92U G152C cannot be ordered by “polymerase ribozyme fitness (log ratio)” value: at most -4.2 for the first, at most -4.2 for the second.

A73U C76G G86A G140U and A73U C76U C99U C105G G140A cannot be ordered by “polymerase ribozyme fitness (log ratio)” value: at most -4.2 for the first, at most -4.2 for the second.

Compared with A73U C79G C87A C99G G117U, A73U C85A A147C is higher in “polymerase ribozyme fitness (log ratio)” value: at most -4.2 for the first, -2.75 for the second.

A73U C87U G88A A110U and A73U C93U C108U cannot be ordered by “polymerase ribozyme fitness (log ratio)” value: at most -4.2 for the first, at most -4.2 for the second.

A73U C95U G140A A142C and A73U C96U G112A cannot be ordered by “polymerase ribozyme fitness (log ratio)” value: at most -4.2 for the first, at most -4.2 for the second.

A73U C108A A110C G133A and A73U G81A A89G G94U A121U cannot be ordered by “polymerase ribozyme fitness (log ratio)” value: at most -4.2 for the first, at most -4.2 for the second.

Compared with A73U G81A G83C C118U A120U U134G, A73U G83C C123G is higher in “polymerase ribozyme fitness (log ratio)” value: at most -4.2 for the first, -2.93 for the second.

First: A73U G83U A122C U127A
Second: A73U G84A
The “polymerase ribozyme fitness (log ratio)” value of the first is lower: at most -4.2 for the first, -2.32 for the second.

A73U G84A A150C and A73U G84A C108G G141A U145C cannot be ordered by “polymerase ribozyme fitness (log ratio)” value: at most -4.2 for the first, at most -4.2 for the second.

First: A73U G84C C116A
Second: A73U G84U A120G G140A U144G
The “polymerase ribozyme fitness (log ratio)” value of the first is higher: -2.63 for the first, at most -4.2 for the second.

A73U G84U A142C G143A and A73U G94C U101C C123A cannot be ordered by “polymerase ribozyme fitness (log ratio)” value: at most -4.2 for the first, at most -4.2 for the second.

Going from A73U U77A G92A G112A to A73U U82A C95U, the “polymerase ribozyme fitness (log ratio)” value rises from at most -4.2 to -1.04.
